Experimental data as given in patent US20230021840A1 (BEIJING SUNGEN BIOMEDICAL TECHNOLOGY, published 2023).

How the values were obtained:
[1] = biological target: T1, recombinant human soluble GP73 (human, UniProt Q8NBJ4 56-401, limits assumed); experiment: SPR, Reichert 4SPR
T1 construct: domain: soluble GP73; Expressed and purified from mammalian cells by the applicant; also called rhsGP73; sGP73
T1 sequence (looked up): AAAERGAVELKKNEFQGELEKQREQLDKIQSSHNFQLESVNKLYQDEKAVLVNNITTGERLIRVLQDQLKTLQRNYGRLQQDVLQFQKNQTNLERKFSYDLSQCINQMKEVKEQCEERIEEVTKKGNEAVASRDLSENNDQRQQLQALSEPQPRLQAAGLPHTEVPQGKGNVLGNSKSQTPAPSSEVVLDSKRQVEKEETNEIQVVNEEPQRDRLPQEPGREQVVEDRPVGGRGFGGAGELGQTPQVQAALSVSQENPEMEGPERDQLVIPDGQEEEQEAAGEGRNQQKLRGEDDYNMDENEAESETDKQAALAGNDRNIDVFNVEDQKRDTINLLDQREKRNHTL

[2] = biological target: T1, recombinant human soluble GP73; experiment: OpenSPR, GP73 coupled to amine sensor chip, glucagon in mobile phase
[3] = biological target: T1, recombinant human soluble GP73; experiment: microscale thermophoresis (MST), His-tagged GP73 labelled with RED-tris-NTA, GCG titrated

B1: glucagon (peptide)
peptide: not shown
notes: mature; The 29-residue glucagon peptide is only a part of that entry; also called GCG
For B1, the Kd [1] was 2830 nM, the Kd [2] was 2800 nM and the Kd [3] was 2450 nM.
